# Source: publication PMC12040169 (PLOS Biology, 2025)
# The list shows a part of the results.
# System: T1, C. trachomatis L2/434/Bu expressing GFP (CTL2-GFP)
# T1 construct: L2/434/Bu GFP intracellular growth in HeLa cells
# Design: species or system HeLa; C. trachomatis total inclusion area by high-content imaging, normalised to DMSO
# Settings: total inclusion area; 28.5 h, 10 µM; inhibitor
# Summary of the method: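 Imaging read-out: GFP inclusions and Hoechst nuclei captured by high-content imaging after fixation. Inclusion area/number = chlamydial growth; nuclei count = host cell viability. MIC calculated per earlier method.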
row,Compound,% of control remaining
1,CCOc1ncccc1C(=O)N(Cc1nnc(-c2ccc(Cl)cc2)o1)C1CC1 [CBK296934],99.0392
2,CC(=O)Nc1c(-c2ccc(C)cc2)c(=O)c2ccccc2n1C [CBK287775],109.788
3,CSc1nnc(CCCNC(=O)c2cccc(C#N)c2)n1CC(C)C [CBK306023],62.835
4,COc1ccc(-n2c(CNCc3ccc4c(c3)OCO4)nc3ccccc3c2=O)cc1 [CBK074522],78.1703
5,O=C(Nc1cccc(Cl)c1)c1nnc(C(=O)NC2CCCCC2)s1 [CBK294406],110.419
6,O=C(O)Cc1ccc(Oc2ncc(C(F)(F)F)cc2Cl)cc1 [CBK161657],126.055
7,CCC(C(=O)O)N1C(=O)NC2C1N(C)C(=O)N2C (centres unmarked) [CBK287039],101.94
8,Cc1cccnc1C1(O)CCN(C(=O)Cc2ccccc2Cl)CC1 [CBK283682],108.036
9,CSc1nc2c(cc1C#N)CCC2 [CBK026532],38.1446
10,CC(=O)N1CCc2c([nH]c3ccccc23)C1CNCc1ccc(F)cc1 (centres unmarked) [CBK066968],102.223
11,O=C(c1ccccc1)N1CCC(c2nnc(-c3ccsc3)o2)CC1 [CBK283371],113.274
12,Cc1ccc(C(=O)N2CCC(C(=O)NC(c3ccccc3)c3ccsc3)CC2)cc1 (centres unmarked) [CBK060154],101.448
13,O=c1c2cc(F)ccc2nc2n1CCN(Cc1ccsc1)CC2 [CBK284860],76.3022
14,COc1ccc(-c2nc(-c3ccncc3)ncc2C(=O)NCc2ccncc2)cc1 [CBK291112],122.348
15,COc1ccc(OC)c(S(=O)(=O)n2ccc3c(N4CCNCC4)nccc32)c1 [CBK059067C],80.3419
16,NC(=O)c1cccc(-c2nc(-c3ccc(F)cc3F)cnc2N)c1 [CBK064109],96.2865
17,COC(=O)C1Cc2cc3c(cc2C(c2cc(OC)c(OC)c(OC)c2)N1)OCO3 (centres unmarked) [CBK200104T],65.1077
18,CN(C)C(=O)Cn1cccc2cc(-c3ccc(F)cc3)nc1-2 [CBK285349],100.566
19,CC(C)NC(=O)N1CCc2sccc2C1c1ccc(Cl)cc1 (centres unmarked) [CBK018247],74.3169
20,O=C1Nc2ccc(-c3ccsc3)cc2C(=O)N2CC[C@H](NC(=O)N3CCOCC3)[C@@H]12 [CBK289338],123.459
21,O=C(c1cn(-c2cc(Nc3ccccc3)ncn2)cn1)N1CCOCC1 [CBK288610],108.415
22,COc1cc(CNc2nc(O)cc(C(F)(F)F)n2)cc(OC)c1OC [CBK002390],95.5461
23,CCCOc1ccc(Cc2nc(N(C)C)cc(N(C)C)n2)cc1 [CBK008318],102.371
24,Cc1ccc(C(=O)Nc2ccc3c(c2)OCO3)c(N2CCOCC2)n1 [CBK076377],112.086
25,FC(F)(F)c1cc(-c2cc(N3CCN(c4ccccn4)CC3)ncn2)cc(C(F)(F)F)c1 [CBK091082],27.812
26,CS(=O)(=O)c1ccc(CN2C(=O)CC3(CCN(Cc4ccccc4)CC3)C2=O)cc1 [CBK144065T],69.1627
27,CCCC(=O)NC1CCN(C(=O)c2snnc2CC)CC1 [CBK297744],93.9641

row,Compound,% of control remaining
1,COc1cc(C#N)ccc1OCc1cc(C)on1 [CBK002581],87.1474
2,COc1ccccc1N(CC(=O)Nc1ccc2c(c1)oc1ccccc12)S(=O)(=O)c1ccccc1 [CBK264737],100.068
3,C#CCn1ncc2c3sc(C)cc3n(CC)c2c1=O [CBK284225],95.6895
4,Cn1cccc1-c1cc(C(=O)N/N=C/c2cccc(O)c2)[nH]n1 [CBK263397],88.0931
5,CC(C)c1ccc(/C=C/C(=O)NCCc2c[nH]cn2)cc1 [CBK149629],101.368
6,NC1OC(COC(=O)c2ccccc2)C(OC(=O)c2ccccc2)C1OC(=O)c1ccccc1 (centres unmarked) [CBK010282],102.846
7,CC(C)c1nc(CC(=O)N2CCOC(c3ccc(F)cc3)C2)cs1 (centres unmarked) [CBK305334],29.1292
8,COC(=O)c1c(NC(=O)c2ccccc2)csc1C [CBK026684],99.0218
9,CN1CCC(N(C2CC2)S(=O)(=O)c2ccc(NC(=O)C(C)(C)C)cc2)CC1 [CBK021115],26.5315
10,O=C(Cn1cccc2cc(C3CCNCC3)nc1-2)N1CCCC1 [CBK284680],72.3999
11,NC(=O)CN1CCCC2(CCN(C(=O)Cc3c[nH]c4ccccc34)C2)C1 (centres unmarked) [CBK132046],97.6922
12,COc1ccc(C(=O)Nc2c(C)noc2C)c(OC)n1 [CBK200300],91.4988
13,O=C(CCc1cccnc1)Nc1cnc(-c2cccc(OC(F)(F)F)c2)c(-c2cccnc2)n1 [CBK036811],75.5006
14,O=C(c1cccs1)N1CCCN(c2nccc(C(F)(F)F)n2)CC1 [CBK019390],74.8654
15,CSCCCNC(=O)c1ccc(-c2ccc(OC(F)(F)F)cc2)nc1 [CBK156216],84.3778
16,Fc1cccc(-c2nccnc2NCc2cccnc2)c1 [CBK037633],87.2697
17,COc1cc(OC)c(NC(=O)N2CCC(n3c(=O)[nH]c4ccccc43)CC2)cc1Cl [CBK149851],88.1296
18,CS(=O)(=O)N(CC(=O)Nc1ccc2ccccc2c1)c1ccc(Cl)cc1Cl [CBK267501],95.5967
19,CCCCCc1nnc(NC(=O)c2cccs2)s1 [CBK058382],75.6062
20,Cc1nn(C)c2ncc(S(=O)(=O)NC(C)c3cccc(F)c3)cc12 (centres unmarked) [CBK305948],77.2531
21,CCN(C)c1c(C)nc2c(OCC(=O)N(C)C)cccn12 [CBK147316],100.096
22,COc1cc(-c2cncc(N(C)CCN(C)C)n2)cc(OC)c1OC [CBK065312],119.326
23,CC(C)(C)NC(=O)COc1ccc(CNCc2ccccn2)cc1 [CBK268420C],110.214
24,CN(Cc1cc(C(C)(C)C)c(O)c(C(C)(C)C)c1)Cc1cc(C(C)(C)C)c(O)c(C(C)(C)C)c1 [CBK261980],96.2927
25,O=[N+]([O-])c1cccc(-c2cc(N3CCC(N4CCCCC4)CC3)ncn2)c1 [CBK037710],96.0524
26,Cc1ccc(-c2cc3cccnc3n2CCC(=O)NC2CC2)cn1 [CBK284964],89.4642
27,O=C(Nc1cccc(-c2noc(-c3ccccn3)n2)c1)c1cccs1 [CBK270283],101.687

row,Compound,% of control remaining
1,CC(C)(C)c1cc(C(=O)Nc2ccccn2)n(Cc2ccc(Cl)cc2Cl)n1 [CBK107361],84.4537
2,CC(=O)CSc1nnc(-c2ccc(F)cc2)o1 [CBK068327],95.3353
3,Cc1cc(OC(C)C(=O)Nc2nnc[nH]2)ccc1Cl (centres unmarked) [CBK269731],88.5626
4,CCCn1ccnc1CN1CCC2(CC1)CC(C(=O)O)N(C(C)=O)C2 (centres unmarked) [CBK306691],91.1587
5,COc1cc(/C=N/n2c(S)nnc2C(F)(F)F)cc(Br)c1O [CBK265321],90.8065
6,Cc1nc(-c2cccnc2)[nH]c(=O)c1CCC(=O)N1CCNC(C)C1 (centres unmarked) [CBK304163],115.712
7,CN(Cc1ccccc1)C(=O)c1ccccc1NC(=O)c1ccccc1 [CBK267818],72.5058
8,O=C(NC1CC2(CCOCC2)Oc2ccccc21)c1cccs1 (centres unmarked) [CBK285377],102.893
9,O=C(Nc1cccc2cccnc12)c1sc2ccccc2c1Cl [CBK262132],113.991
10,CC(C)(C)c1ccc(NC(=O)N(Cc2ccccc2C(F)(F)F)CC2CCNCC2)cc1 [CBK049752],100.71
11,Cc1n[nH]c(C)c1CC(=O)NC(Cc1cccs1)c1nccs1 (centres unmarked) [CBK285093],110.669
12,COc1ccc(NC(=O)CSc2ncnc3sc(C)cc23)c(OC)c1 [CBK277541],124.912
13,FC(F)(F)c1ccnc(OC2CCNC2)n1 (centres unmarked) [CBK113296],89.669
14,Cc1cc(C)n2ncc(C(=O)N3CCCC3c3ccsc3)c2n1 (centres unmarked) [CBK305616],77.1396
15,Cc1cccc(NCC(=O)N/N=C/c2cc3ccccc3nc2Cl)c1 [CBK261236],104.61
16,CC(=O)Nc1ccc(-c2nc3ccc(-c4ccc5nc(-c6ccc(NC(C)=O)cc6)oc(=O)c5c4)cc3c(=O)o2)cc1 [CBK261391],90.1152
17,Clc1ccc(Cl)c(N/N=C(\c2ccccc2)c2cccnc2)c1 [CBK015932C],72.0169
18,CC(C)NC(=O)Cn1c(-c2cccs2)cc2cccnc21 [CBK282454],109.007
19,CCOC(=O)CN1CCN(C(=O)Nc2ccccc2Br)CC1 [CBK044156],106.533
20,Cc1cccc(-n2c(SCC(=O)Nc3ccc(Br)cc3F)nnc2-c2ccccc2)c1 [CBK265903],108.748
21,COc1ccc(C(NC(=O)C2CCC(N)CC2)c2ccccc2C)cn1 (centres unmarked) [CBK078551],61.1206
22,Cc1ccc(C(=O)N2CCC(C(=O)NC(c3ccccc3)c3ccc4ccccc4n3)CC2)cc1 (centres unmarked) [CBK059663],98.8865
23,C(=C\c1nccnc1OCCOc1ccccc1)/c1ccccc1 [CBK106885],95.5944
24,FC(F)(F)c1nc2ccccc2nc1SCCc1ccccn1 [CBK103731],96.9614
25,C=C(C)CN1CCN(C(=O)c2[nH]c3ccc(OCC)cc3c2C)CC1 [CBK282666],107.9
26,COc1ccc(C(NC(=O)C2CCN(S(C)(=O)=O)CC2)c2ccccc2C)cn1 (centres unmarked) [CBK059738],91.9192
